Results on 28 compounds are retold here after the antibiotic and cytotoxicity screens of Wong et al. (2023).

Structures are written as SMILES. Some of the results follow.

In one assay the test system is HSkMC. In words: cytotoxicity call (relative viability < 0.9). To be noted: 10 µM.
In another assay the test system is HepG2. In words: cytotoxicity call (relative viability < 0.9). To be noted: 10 µM.
The next assay has as its system S. aureus RN4220. Kind of assay: growth inhibition call (relative growth <= 0.2). To be noted: 50 µM.

Turning to `C[C@@H]1CCCCO[C@@H](CN(C)C(=O)Nc2cccc3ccccc23)[C@@H](C)CN([C@@H](C)CO)C(=O)c2cc(NC(=O)c3ccccc3)ccc2O1`, the cytotoxicity call in the assay with HSkMC and with HepG2 was “inactive” in each case. The growth inhibition call in the assay on S. aureus RN4220 is “inactive”.

On to `C[C@H]1CCCCO[C@H](CN(C)C(=O)c2ccccc2)[C@@H](C)CN([C@@H](C)CO)C(=O)c2cc(NS(=O)(=O)c3ccc(Cl)cc3)ccc2O1`, for which the cytotoxicity call in the assay with HSkMC and in the assay with HepG2 was “inactive” in each case. The growth inhibition call with S. aureus RN4220 is “inactive”.

Turning to `C[C@@H]1CN([C@H](C)CO)S(=O)(=O)c2ccc(C3=CCCCC3)cc2O[C@@H]1CN(C)C(=O)C1CCOCC1`, the cytotoxicity call with HSkMC and with HepG2 was “inactive” in each case. In addition, the growth inhibition call in the assay with S. aureus RN4220 was “inactive”.

On to `CC(C)(C)[S@@](=O)N1Cc2cc(C(=O)NCc3ccc4c(c3)OCO4)nc(-c3cccc(-c4ccncc4)c3)c2[C@H]1CCO`, for which the cytotoxicity call with HSkMC and in the assay with HepG2 was “inactive” in each case. Moreover, the growth inhibition call in the assay with S. aureus RN4220 was “inactive”.

Turning to `C[C@@H]1CN([C@H](C)CO)C(=O)c2cccc(NS(=O)(=O)c3cccs3)c2O[C@H]1CN(C)S(=O)(=O)c1cn(C)cn1`, the cytotoxicity call in the assay with HSkMC and in the assay on HepG2 was “inactive” throughout. Further, in the assay on S. aureus RN4220, the growth inhibition call was “inactive”.

With `COc1ccc(NC(=O)N(C)C[C@@H]2Oc3ccc(NC(=O)C4CC4)cc3C(=O)N([C@@H](C)CO)C[C@@H]2C)cc1`, the cytotoxicity call in the assay on HSkMC and in the assay on HepG2 was “inactive” each time. The growth inhibition call in the assay on S. aureus RN4220 was “inactive”.

Take `C[C@H]1CN([C@@H](C)CO)C(=O)Cc2cc(NC(=O)C3CCCCC3)ccc2O[C@@H]1CN(C)C(=O)Nc1cccc2ccccc12`: the cytotoxicity call with HSkMC and in the assay with HepG2 was “inactive” each time. In addition, in the assay with S. aureus RN4220, the growth inhibition call was “inactive”.

Consider `COc1ccc(NC(=O)Nc2ccc3c(c2)C(=O)N([C@H](C)CO)C[C@H](C)[C@@H](CN(C)C(=O)Nc2ccc(OC)cc2)OCCCC[C@@H](C)O3)cc1`, for which the cytotoxicity call with HSkMC and with HepG2 was “inactive” in each case. Further, in the assay with S. aureus RN4220, the growth inhibition call was “inactive”.

Consider `NCC1OC(OC2C(N)CC(N)C(OC3OC(CO)C(O)C(N)C3O)C2O)C(N)CC1O` (centres undefined), for which the cytotoxicity call with HSkMC and with HepG2 was “inactive” in each case. Also, the growth inhibition call in the assay with S. aureus RN4220 is “active”.

As to `O=c1ncc(F)c[nH]1`, the cytotoxicity call in the assay on HSkMC and with HepG2 was “inactive” in each case. In addition, the growth inhibition call with S. aureus RN4220 is “inactive”.

`C[C@@H]1CCCCO[C@@H](CN(C)C(=O)Cc2ccccc2)[C@H](C)CN([C@H](C)CO)C(=O)c2cc(NC(=O)C3CCCCC3)ccc2O1`: the cytotoxicity call in the assay with HSkMC and with HepG2 was “inactive” throughout. Besides, the growth inhibition call in the assay on S. aureus RN4220 is “inactive”.

With `COc1ccc(CNC(=O)C[C@@H]2C[C@H]3c4cc(NC(=O)NC5CCCC5)ccc4O[C@H]3[C@@H](CO)O2)cc1`, the cytotoxicity call in the assay with HSkMC and with HepG2 was “inactive” each time. Further, the growth inhibition call with S. aureus RN4220 is “inactive”.

On to `C[C@H]1CN([C@@H](C)CO)C(=O)c2cc(NC(=O)Cn3cnnn3)ccc2O[C@@H]1CN(C)Cc1ccncc1`, for which the cytotoxicity call in the assay on HSkMC and in the assay on HepG2 was “inactive” in each case. Further, the growth inhibition call with S. aureus RN4220 was “inactive”.

On to `Cc1ccc(S(=O)(=O)Nc2ccc3c(c2)C(=O)N([C@@H](C)CO)C[C@H](C)[C@@H](CN(C)S(=O)(=O)c2ccc(C)cc2)OCCCC[C@@H](C)O3)cc1`, for which the cytotoxicity call in the assay with HSkMC and in the assay with HepG2 was “inactive” throughout. In addition, the growth inhibition call in the assay with S. aureus RN4220 is “inactive”.

Regarding `COc1ccc(CN(C)C[C@@H]2OCCCC[C@H](C)Oc3ccc(NS(=O)(=O)c4c(C)noc4C)cc3C(=O)N([C@@H](C)CO)C[C@@H]2C)cc1`, the cytotoxicity call in the assay on HSkMC and with HepG2 was “inactive” in each case. Besides, the growth inhibition call in the assay on S. aureus RN4220 is “inactive”.

Regarding `Nc1nnnn1/N=C\C=C\c1ccccc1`, the cytotoxicity call in the assay with HSkMC and in the assay with HepG2 was “inactive” throughout. Also, the growth inhibition call in the assay with S. aureus RN4220 was “inactive”.

Take `O=C(O)[C@H]1C[C@@H](CP(=O)(O)O)CCN1`: the cytotoxicity call in the assay with HSkMC and in the assay on HepG2 was “inactive” in each case. Further, the growth inhibition call with S. aureus RN4220 is “inactive”.

`C[C@@H]1CN([C@@H](C)CO)C(=O)Cc2cc(NS(=O)(=O)c3ccc(Cl)cc3)ccc2O[C@@H]1CN(C)Cc1ccc(Oc2ccccc2)cc1`: the cytotoxicity call in the assay with HSkMC and in the assay on HepG2 was “active” in each case. Moreover, the growth inhibition call in the assay on S. aureus RN4220 is “inactive”.

For `C[C@@H]1CN([C@H](C)CO)C(=O)c2cc(NC(=O)c3ccncc3)ccc2O[C@@H](C)CCCCO[C@H]1CN(C)C(=O)Nc1ccc2c(c1)OCO2`, the cytotoxicity call in the assay with HSkMC and with HepG2 was “inactive” each time. In addition, the growth inhibition call in the assay with S. aureus RN4220 is “inactive”.

In the case of `COc1ccc(NC(=O)Nc2ccc3c(c2)C(=O)N([C@@H](C)CO)C[C@H](C)[C@@H](CN(C)S(C)(=O)=O)O3)cc1`, the cytotoxicity call in the assay on HSkMC and with HepG2 was “inactive” in each case. The growth inhibition call with S. aureus RN4220 is “inactive”.

For `CCN1CCCC1CNC(=O)c1cc(S(N)(=O)=O)ccc1OC` (centres undefined), the cytotoxicity call in the assay on HSkMC and in the assay on HepG2 was “inactive” each time. In addition, the growth inhibition call in the assay on S. aureus RN4220 is “inactive”.

Turning to `CCOc1ccc(Cc2nccc3cc(OCC)c(OCC)cc23)cc1OCC.Cl`, in the assay with HSkMC, the cytotoxicity call was “inactive”. Also, in the assay on HepG2, the cytotoxicity call was “active”. In addition, the growth inhibition call with S. aureus RN4220 is “inactive”.

Take `Cc1ccc([N+](=O)[O-])cc1S(N)(=O)=O`: the cytotoxicity call in the assay with HSkMC and with HepG2 was “inactive” each time. Moreover, in the assay with S. aureus RN4220, the growth inhibition call was “inactive”.

With `C[C@H](CO)N1C[C@H](C)[C@@H](CN(C)C(=O)CN(C)C)Oc2cc(C#Cc3cccnc3)ccc2S1(=O)=O`, the cytotoxicity call with HSkMC and in the assay on HepG2 was “inactive” each time. For the same compound, the growth inhibition call in the assay on S. aureus RN4220 is “inactive”.

As for `C[C@@H]1CCCCO[C@@H](CN(C)S(=O)(=O)c2cccs2)[C@H](C)CN([C@H](C)CO)C(=O)c2cc(NC(=O)c3ccccc3)ccc2O1`, the cytotoxicity call with HSkMC was “inactive”. Further, in the assay with HepG2, the cytotoxicity call was “active”. Further, the growth inhibition call with S. aureus RN4220 is “inactive”.

For the compound `O=c1c(-c2ccc(O)cc2)coc2c([C@@H]3O[C@H](CO)[C@@H](O)[C@H](O)[C@H]3O)c(O)ccc12`, the cytotoxicity call with HSkMC and in the assay on HepG2 was “inactive” throughout. In the assay with S. aureus RN4220, the growth inhibition call is “inactive”.

Take `COCC(=O)Nc1ccc2c(c1)C(=O)N(C)[C@@H]1CC[C@@H](CC(=O)NCc3ccccc3Cl)O[C@@H]1CO2`: the cytotoxicity call in the assay with HSkMC and with HepG2 was “inactive” in each case. The growth inhibition call with S. aureus RN4220 is “inactive”.

As to `COc1ccc(-c2ccc3c(c2)O[C@H](CN(C)CC2CCOCC2)[C@H](C)CN([C@H](C)CO)S3(=O)=O)cc1`, the cytotoxicity call in the assay on HSkMC (human skeletal muscle cells) and in the assay on HepG2 was “inactive” throughout. In addition, the growth inhibition call with S. aureus RN4220 is “inactive”.
